Experimental data: the supplement of paper PMC12217912
The other results are listed elsewhere or left out. The full chains were built here from the parent and the listed change. Values near 0.05 are background.

B1: TEV protease; numbered along this chain (parent)
chain: MGESLFKGPRDYNPISSSICHLTNESDGHTTSLYGIGFGPFIITNKHLFRRNNGTLVVQSLHGVFKVKDTTTLQQHLVDGRDMIIIRMPKDFPPFPQKLKFREPQREERICLVTTNFQTKSMSSMVSDTSCTFPSGDGIFWKHWIQTKDGQCGSPLVSTRDGFIVGIHSASNFTNTNNYFTSVPKNFMELLTNQEAQQWVSGWRLNADSVLWGGHKVFMVKPEEPFQPVKEATQL

Variants of: B1
Assay: raw area under fraction-flipped curve 0-4 h after induction (AUC4h, not background-subtracted), DNA-recorder readout of cleavage of the substrate (dimensionless); higher = more cleavage of the substrate by the protease variant
Conditions: temperature: 34 °C; time window: 0-4 h after rhamnose induction
Method: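 In vivo DNA recorder in E. coli TOP10(DE3) ΔrhaA at 34 °C. Each TEVp single-site mutant (parent TEVp 0) is paired with a single-site variant of the 7-mer TEVs (canonical ENLYFQ|S). The substrate sits between flexible linkers in a Bxb1-sfGFP-TEVs-SsrA fusion, so cleavage stabilises Bxb1 and speeds flipping of a recombination array, read by NGS. The value is the raw area under the fraction-flipped curve over 0-4 h after rhamnose induction (AUC4h), with ≥20 reads per time point. It is not background-subtracted; inactive controls average about 0.047.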
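Note: Bxb1 expression induced with 0.2% (w/v) L-rhamnose at OD600 near 0.5, cultures sampled hourly, flipped fraction per protease–substrate barcode pair counted by paired-end Illumina sequencing.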

Variant | area with substrate ENLYAQS | area with substrate ENLYDQS | area with substrate ENLYEQS | area with substrate ENLYGQS | area with substrate ENLYHQS | area with substrate ENLYIQS | area with substrate ENLYKQS | area with substrate ENLYLQS | area with substrate ENLYMQS | area with substrate ENLYNQS | area with substrate ENLYPQS | area with substrate ENLYQQS | area with substrate ENLYRQS | area with substrate ENLYSQS | area with substrate ENLYTQS | area with substrate ENLYVQS | area with substrate ENLYWQS | area with substrate ENLYYQS | area with substrate ENLYCQS
N45R | 0.0589 | 0.0613 | 0.0713 | 0.0633 | 0.057 | 0.0513 | 0.0361 | 0.0637 | 0.0558 | 0.0618 | 0.0449 | 0.0877 | 0.0654 | 0.0653 | 0.0498 | 0.0577 | 0.045 |  | 
I43W | 0.049 | 0.0412 | 0.033 |  | 0.0441 | 0.0331 | 0.055 | 0.0998 | 0.0616 | 0.026 | 0.047 | 0.0633 | 0.025 | 0.0537 | 0.0368 | 0.0297 | 0.0473 | 0.0633 | 
I43G | 0.0415 | 0.0359 | 0.0566 |  |  | 0.0411 | 0.0473 |  | 0.0475 | 0.0527 |  | 0.0342 | 0.0502 | 0.061 |  | 0.0413 | 0.0464 | 0.0439 | 0.0444
I43F | 0.0638 |  | 0.067 | 0.058 | 0.0635 |  | 0.0628 |  | 0.0638 | 0.0591 | 0.0656 | 0.0623 | 0.0635 | 0.0528 | 0.0731 | 0.0961 | 0.0596 | 0.0583 | 
D27L | 0.0628 | 0.062 |  | 0.0596 | 0.057 |  | 0.0609 | 0.0714 | 0.0707 | 0.0707 | 0.0671 | 0.0416 | 0.0505 | 0.0772 | 0.0712 | 0.116 | 0.0681 | 0.0638 | 0.0797
H29S | 0.0694 | 0.06 | 0.0659 | 0.0695 | 0.0618 | 0.115 | 0.0586 | 0.0848 | 0.0855 | 0.0586 | 0.0874 |  | 0.0645 | 0.0816 |  | 0.12 | 0.07 |  | 
H29V | 0.0787 | 0.0662 | 0.0702 | 0.0636 | 0.0628 | 0.142 | 0.0801 | 0.167 | 0.069 |  | 0.0792 | 0.0577 |  |  |  | 0.162 | 0.0584 |  | 
N24M | 0.0563 | 0.0636 | 0.063 | 0.0586 |  | 0.103 |  |  |  | 0.0719 | 0.0883 | 0.0781 |  | 0.0687 |  | 0.0847 | 0.0838 | 0.0252 | 0.117
F38N | 0.0641 | 0.0696 |  | 0.0412 | 0.0599 | 0.0978 | 0.0486 | 0.106 |  | 0.0552 | 0.0608 | 0.0591 | 0.0571 | 0.0617 | 0.0704 |  |  |  | 
F38T | 0.0562 | 0.0488 | 0.0596 | 0.0765 | 0.0643 | 0.0834 | 0.0345 |  | 0.0717 | 0.058 | 0.0587 | 0.0575 | 0.0532 | 0.0586 | 0.0443 | 0.0962 | 0.0725 |  | 
T55F | 0.0714 | 0.0585 | 0.0687 | 0.0571 | 0.0719 | 0.122 | 0.0514 |  |  | 0.0848 | 0.0766 |  |  |  |  | 0.113 | 0.0611 | 0.0864 | 
N52K | 0.052 | 0.0616 |  | 0.0523 | 0.0498 | 0.108 | 0.0338 |  | 0.054 | 0.0589 | 0.0638 | 0.0622 | 0.0604 |  | 0.0739 |  | 0.0552 | 0.054 | 
L73S | 0.061 |  | 0.0799 | 0.0722 | 0.0539 | 0.0717 |  | 0.0544 | 0.0582 | 0.0725 | 0.05 | 0.0545 |  | 0.0527 |  | 0.0619 |  |  | 
L73T | 0.0506 | 0.062 | 0.0642 | 0.058 | 0.0682 |  | 0.0498 |  | 0.0318 | 0.0621 | 0.0694 | 0.0606 |  | 0.0671 | 0.0578 | 0.0828 | 0.0652 |  | 
L73W | 0.0971 |  |  |  | 0.0613 |  | 0.0416 | 0.0678 | 0.0634 | 0.0574 |  |  | 0.0597 |  |  | 0.0822 |  |  | 0.0586
Q59M | 0.0635 | 0.057 | 0.0632 | 0.078 | 0.061 | 0.144 | 0.0618 |  | 0.0987 | 0.0631 | 0.069 | 0.0564 | 0.0621 | 0.0765 | 0.0874 | 0.125 | 0.092 |  | 0.0755
Q74R | 0.0597 | 0.0626 | 0.0569 |  | 0.046 | 0.0888 | 0.0732 |  | 0.0845 |  | 0.0693 |  |  | 0.137 |  |  | 0.0727 |  | 0.0739
T70G | 0.0754 |  | 0.0518 | 0.0604 | 0.0597 | 0.0981 | 0.0453 | 0.0644 | 0.0735 |  |  | 0.0601 | 0.0374 |  | 0.0703 | 0.0877 | 0.0471 | 0.0385 | 
T70H | 0.0619 |  | 0.0564 |  | 0.0644 |  | 0.0563 |  | 0.0666 | 0.0507 | 0.0589 |  | 0.0561 |  |  |  |  |  | 
T70Q | 0.0552 | 0.0529 |  |  | 0.0608 | 0.116 | 0.0622 |  |  |  | 0.0715 | 0.0392 |  | 0.0727 |  | 0.0878 |  |  | 0.0756
T30Q | 0.0628 | 0.0601 | 0.0765 | 0.0693 | 0.073 | 0.0676 | 0.0616 |  | 0.086 | 0.0706 | 0.0658 |  | 0.0584 | 0.0734 |  |  | 0.0936 | 0.0623 | 
T23H | 0.0707 | 0.0539 | 0.0788 | 0.0723 | 0.0655 | 0.0989 | 0.0506 | 0.0711 |  | 0.0691 | 0.0667 | 0.0838 | 0.081 |  | 0.0603 | 0.1 | 0.0764 | 0.0582 | 0.0903
S26D | 0.07 | 0.0721 | 0.0628 | 0.0588 | 0.0678 | 0.101 | 0.0693 | 0.0793 | 0.0606 |  |  | 0.063 | 0.0889 | 0.0547 | 0.0672 | 0.0934 | 0.0925 | 0.0728 | 0.0787
S60M | 0.0714 |  | 0.0549 | 0.0635 | 0.076 | 0.126 | 0.0709 |  | 0.0872 | 0.0701 | 0.0722 |  | 0.0515 | 0.0738 | 0.0947 | 0.114 | 0.0639 |  | 0.0731
G39T | 0.048 | 0.0534 | 0.0589 | 0.0454 | 0.0508 | 0.0445 | 0.0518 | 0.0376 | 0.0609 | 0.0475 | 0.0533 | 0.0476 | 0.0437 | 0.0517 | 0.0418 | 0.0498 |  |  | 
